From ChEMBL document CHEMBL4888484, “Replenishing the malaria drug discovery pipeline: Screening and hit evaluation of the MMV Hit Generation Library 1 (HGL1) against asexual blood stage Plasmodium falciparum ,using a nano luciferase reporter read-out” (2022)
The campaign covered roughly 150,000 compounds. About 540 (0.36%) showed an effect of 50% or more. Some of the results follow.

test system: Plasmodium falciparum; assay: Primary screen in NF54 nanoGlo assay, in single point, at 2uM, 72h; a lower Z score goes with more inhibition; assay type: functional, Erythrocyte; conditions: timepoint 72 hour

Q: How did the “% Inhibition” value turn out when `O=C(c1cc2cc(F)ccc2nc1O)N1C[C@H]2CCC[C@H]2C1` was run?
A: -5%

Q: What about the Z score of the same molecule?
A: 1.02

Q: With `O=C(NCc1ccncc1)c1ccc(S(=O)(=O)N2CCCCCC2)cc1` as the molecule, how does the “% Inhibition” value read?
A: -13%

Q: What about the Z score of the same molecule?
A: 2.32

Q: With `O=C(c1ccccc1)N1C[C@H]2CC[C@@H](C1)N(C(=O)c1cccc3ccccc13)C2` as the molecule, how does the “% Inhibition” value read?
A: -7%

Q: What about the Z score of the same molecule?
A: 1.34

Q: With `CC1CCCC(C)N(C(=O)CCOc2ccc(C(N)=O)cc2)C1` (configuration not stated) as the molecule, how does the “% Inhibition” value read?
A: -2%

Q: What about the Z score of the same molecule?
A: 0.26

Q: How did the “% Inhibition” value turn out when `Cc1cnc(CN(CCO)Cc2nccs2)cn1` was run?
A: -10%

Q: And the Z score?
A: 1.51

Q: Which “% Inhibition” value does the source give for `Cc1oncc1C(=O)N1CC[C@H](n2ccnn2)C1` here?
A: 1%

Q: What about the Z score of the same molecule?
A: -0.2

Q: What does the source list for `CN1CCOC(CNC(=O)NC2CC2c2cccc(F)c2)C1` (configuration not stated)?
A: % Inhibition: 2%; Z score: -0.38

Q: `CCN(CC)CCCN(C)c1ncnc(N)c1Cl` was tested. Which “% Inhibition” value did it give?
A: -19%

Q: And the Z score?
A: 2.08

Q: Which results are given for `CC(C)(C(=O)NCc1ncccc1S(C)(=O)=O)C1CCC1`?
A: % Inhibition: -9%; Z score: 1.02

Q: How did the “% Inhibition” value turn out when `COc1cc2nc(CN3CCOCC3)n(CC(=O)Nc3ccc(C(C)C)cc3)c(=O)c2cc1OC` was run?
A: -7%

Q: What about the Z score of the same molecule?
A: 1.33

Q: What does the source list for `c1nc(NCCC2CCCCC2)c2cnoc2n1`?
A: % Inhibition: 7%; Z score: -0.88

Q: With `Cn1c(=O)[nH]c(=O)c2nc(C=Cc3cccc(Cl)c3)c(O)nc21` as the molecule, how does the “% Inhibition” value read?
A: 8%

Q: And the Z score?
A: -1.05

Q: How did the “% Inhibition” value turn out when `CCc1ccc(NC(=O)[C@@H]2COCC(=O)N2Cc2ccc(OC)c(OC)c2)cc1` was run?
A: -14%

Q: And the Z score?
A: 1.59

Q: With `O=C(COc1ccc2ccccc2c1)Nc1cnn(CC2CC2)c1` as the molecule, how does the “% Inhibition” value read?
A: -13%

Q: And the Z score?
A: 2.01

Q: Which results are given for `Cc1nc(C)c(Cc2cccc(F)c2)c(N2CCCN(C(=O)c3ccc(C(F)(F)F)cc3)CC2)n1`?
A: % Inhibition: 8%; Z score: -1.04

Q: Which results are given for `O=C(Cc1ccccc1)N(Cc1ccco1)Cc1c(-c2ccc(F)cc2)noc1N1CCOCC1`?
A: % Inhibition: -2%; Z score: 0.25

Q: Which results are given for `CCNS(=O)(=O)[C@H]1CCN(c2cccc(C)n2)C1`?
A: % Inhibition: -4%; Z score: 0.41

Q: How did the “% Inhibition” value turn out when `C[C@H]1CCCN(S(=O)(=O)c2cc(C(=O)NCc3ccccc3Cl)n(C)c2)C1` was run?
A: 0%

Q: And the Z score?
A: 0.04

Q: What does the source list for `CC12CNCC(C)(CN(Cc3ccccc3Br)C1)C2`?
A: % Inhibition: -13%; Z score: 1.19

Q: How did the “% Inhibition” value turn out when `O=C(CN1CCOC[C@@H]1CC1CCC1)Nc1nc(C2CC2)no1` was run?
A: -13%

Q: And the Z score?
A: 1.84

Q: Which results are given for `Cc1ncsc1CCC(=O)Nc1cccc(N2C(=O)CC[C@@H]2C)c1`?
A: % Inhibition: -2%; Z score: 0.31

Q: Which “% Inhibition” value does the source give for `COc1ccc(C(=O)NC2CCN(c3ccccc3C(=O)N(C)C3CCCCC3)CC2)cc1` here?
A: -16%

Q: And the Z score?
A: 2.54

Q: How did the “% Inhibition” value turn out when `Cc1cc(C(=O)N2CCC3(CCC(=O)N(C[C@H](C)O)C3)CC2)c(=O)[nH]c1C` was run?
A: -10%

Q: And the Z score?
A: 1.73

Q: What does the source list for `CN1c2ccccc2C(C)(C)[C@@]12CC(c1ccc(-c3ccccc3)cc1)=NO2`?
A: % Inhibition: -5%; Z score: 0.67

Q: With `CCCNC(=O)N[C@H]1[C@H](O)[C@@H](n2cc(Cl)cn2)[C@@H]2OC[C@H]1O2` as the molecule, how does the “% Inhibition” value read?
A: 27%

Q: And the Z score?
A: -3.09

Q: Which “% Inhibition” value does the source give for `FC(F)C(F)(F)COCCN1CCC2OCCCC2C1` (configuration not stated) here?
A: -11%

Q: What about the Z score of the same molecule?
A: 1.17

Q: For `CCOc1ccc(/C=C2\CCCC3C2=NN(C(=O)c2cc4nc(-c5ccc(C(C)C)cc5)cc(C(F)(F)F)n4n2)C3c2ccc(OCC)cc2)cc1` (configuration not stated), which “% Inhibition” value is on record?
A: -31%

Q: And the Z score?
A: 3.69

Q: How did the “% Inhibition” value turn out when `Cc1nc(CNC(=O)Nc2ccccc2OCC(F)F)no1` was run?
A: 3%

Q: What about the Z score of the same molecule?
A: -0.37

Q: `CCN1CCN(c2ncc(-c3cc(=O)[nH]c(N4CCN(c5ccccc5)CC4)n3)c(C)n2)CC1` was tested. Which “% Inhibition” value did it give?
A: -17%

Q: And the Z score?
A: 2.47

Q: With `O=C(N[C@H]1C[C@@](CO)(c2ccccc2)C1)C1=C[S@@+]([O-])CCC1` as the molecule, how does the “% Inhibition” value read?
A: 30%

Q: And the Z score?
A: -3.35

Q: Which results are given for `O[C@H](Cn1nc(C(F)(F)F)c2cnccc21)CC(F)(F)F`?
A: % Inhibition: 34%; Z score: -3.81

Q: With `O=C(NCc1ccccn1)c1cn(-c2cc(F)c(F)c(F)c2)c(=O)c2ccccc12` as the molecule, how does the “% Inhibition” value read?
A: -3%

Q: What about the Z score of the same molecule?
A: 0.37

Q: With `Cc1ccccc1[C@H]1CCN(c2ccc(NC(=O)c3ccc(Cl)cc3)c(C(=O)O)c2)C1` as the molecule, how does the “% Inhibition” value read?
A: 38%

Q: And the Z score?
A: -5.49

Q: `Nc1ncccc1CN1CCCn2nc(CN3CCC[C@H](O)C3)cc2C1` was tested. Which “% Inhibition” value did it give?
A: -10%

Q: What about the Z score of the same molecule?
A: 1.21

Q: How did the “% Inhibition” value turn out when `C#CCCCC(=O)N1CCS(=O)(=O)C(CC)(CC)C1` was run?
A: 5%

Q: And the Z score?
A: -0.78

Q: How did the “% Inhibition” value turn out when `Cn1nc(NC(=O)NC[C@H](O)C(F)(F)F)cc1C(F)(F)F` was run?
A: -13%

Q: And the Z score?
A: 2.32

Q: `COc1ccc(C(=O)N(Cc2ccccc2)CC2CCOCC2)cn1` was tested. Which “% Inhibition” value did it give?
A: -3%

Q: And the Z score?
A: 0.43

Q: With `CCn1nc(Cn2cncn2)nc1[C@H]1CCCC[C@H]1C(=O)c1ccc(C)cc1` as the molecule, how does the “% Inhibition” value read?
A: -9%

Q: And the Z score?
A: 1.51

Q: With `CCC(CC)C(=O)Nc1ccc(Cl)cc1C` as the molecule, how does the “% Inhibition” value read?
A: 3%

Q: What about the Z score of the same molecule?
A: -0.42

Q: With `CN(C)c1cc(C(F)(F)F)nc(N2CCC(CO)CC2)n1` as the molecule, how does the “% Inhibition” value read?
A: -3%

Q: And the Z score?
A: 0.39

Q: What does the source list for `C[C@@H](CN1CCOCC1)NC(=O)c1ccc(Br)o1`?
A: % Inhibition: -10%; Z score: 1.35
